Consider one molecule from PubChem BioAssay AID316 (DTP/NCI, 2004).

Inconclusive results and toxic doses are left out. A number of entries come with more than one value. Only these are listed. The source may hold further records. The records of an entry differ, and nothing given here explains why; they may come from other doses, times, organisms or constructs than stated.

For the assay, the system named is P1534 leukemia ip, CD2F1 mice, survival T/C. In words: NCI In Vivo Anticancer Drug Screen. Data for tumor model P1534 Leukemia (intraperitoneal) in CD2F1 (CDF1) mice. The settings on record: endpoint: mean survival time, schedule: Q01DX001 (ip), vehicle: saline, higher = longer survival. On the procedure:
The antitumor activity of compounds was measured in mice bearing transplantable tumors. Survival or tumor size were measured and the results are expressed as the measurement made in the treated group (T) divided by the measurement made in the vehicle treated control group (C). The tumor model used in this assay is P1534 Leukemia (intraperitoneal) in CD2F1 (CDF1) mice

Regarding `CC[C@]1(O)C[C@H]2CN(CCc3c([nH]c4ccccc34)[C@@](C(=O)OC)(c3cc4c(cc3OC)N(C=O)[C@H]3[C@@](O)(C(=O)OC)[C@H](OC(C)=O)[C@]5(CC)C=CCN6CC[C@]43[C@@H]65)C2)C1`, the T/C is, setting by setting: (dose: 2.5 mg/kg/injection) 124 % of control, 154 % of control, 184 % of control; (dose: 3.0 mg/kg/injection) 111 % of control and 164 % of control.
